In US5766581, “Method for treating mammals with monopegylated proteins that stimulates megakaryocyte growth and differentiation” (Amgen Inc., dated 1998):

Experiments:
[1] = target: murine Mpl receptor, full length, expressed on 32D cells (subclone 1A6.1) (murine, UniProt Q08351); assay: cell-based or functional assay
[2] = target: human Mpl receptor, full length, on cells (human, UniProt P40238); assay: cell-based or functional assay

U/ml (- mur-MPL-X), 1A6.1 cells [1]: 12800 U/ml | Megakaryocytes per Well (-mur-MPL-X) [2]: 142 megakaryocytes per well
B1: human MGDF-1 ([…] of SEQ ID NO: 25) (ligand)
chain: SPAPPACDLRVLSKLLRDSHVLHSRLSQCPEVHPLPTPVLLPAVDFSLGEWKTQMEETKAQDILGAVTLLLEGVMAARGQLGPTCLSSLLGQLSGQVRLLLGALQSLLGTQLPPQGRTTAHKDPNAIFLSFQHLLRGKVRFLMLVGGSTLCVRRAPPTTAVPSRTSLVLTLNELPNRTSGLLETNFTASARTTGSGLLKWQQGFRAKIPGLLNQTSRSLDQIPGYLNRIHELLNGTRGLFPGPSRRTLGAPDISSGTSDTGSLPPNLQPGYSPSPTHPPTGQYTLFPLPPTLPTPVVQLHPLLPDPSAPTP
